Test results as given in PubChem BioAssay AID1721 (National Center for Advancing Translational Sciences (NCATS), 2009).
The campaign covered roughly 290,000 compounds. About 1,100 (0.38%) were called active. This list was built around the results that the source calls inconclusive (neither active nor inactive); the mix of calls is not that of the screen. Calls come from the whole dose curve; as a rule, active = well fitted inhibition curve with a large enough effect; inconclusive = small, poorly fitted or top-dose-only effect, or another doubt; inactive = no such curve, though single readings can be large or run the other way. Potencies of inconclusive entries are doubtful fits and often do not repeat.

These compounds were tested against Pyruvate kinase (Leishmania mexicana) (UniProt Q27686) (assay: qHTS Assay for Inhibitors of Leishmania Mexicana Pyruvate Kinase (LmPK)). Conditions: purified LmPK, Kinase-Glo ATP luminescence, 1 h; series mostly up to 57.5 µM.
From the text: NIH Chemical Genomics Center [NCGC] Malcolm Walkinshaw, Hugh Morgan, Linda Gilmore University of Edinburgh, UK MLPCN Grant: 1 R03 MH085697-01 NCGC Assay Overview: Pyruvate kinase (L. Mexicana) (LmPK) enzyme was supplied as a highly purified (>95% pure) sulphate-free preparation from University of Edinburgh, UK and assayed for its ability to generate ATP from ADP using phosphoenolpyruvate (PEP) as a substrate. ATP generation was detected in a coupled reaction by luciferase-mediated luminescence, an ATP-dependent process. […] The enzyme was assayed at an intermediate level of activity to screen for both inhibitors and activators.
NCGC Assay Protocol Summary: Three uL of enzyme mix (kept on ice) in assay buffer (50 mM Imidazole pH7.2, 50 mM KCl, 7 mM MgCl2, 0.01% Tween 20, 0.05% BSA) containing PEP (0.5 mM final concentration) and LmPK (0.1 nM final concentration) was dispensed into white solid bottom 1,536 well microtiter plates. 23 nL of compound were delivered by a pin tool and 1 uL of ADP mix in assay buffer (r.t; 0.1 mM final ADP concentration) was added. Plates were incubated at room temperature for 1 hour. Two uL of detection mix (Kinase-Glo, Promega; at 4 degree Celsius protected from light) was added and luminescence read by a ViewLux (Perkin Elmer) at 1 second exposure/plate. Data were normalized to the uninhibited and AC100 inhibition (no enzyme). […]
Potency is the fitted concentration of half-maximal effect; tags give direction and shape of the fitted curve.

UniProt Q27686, sequence (Q27686 whole entry, looked up): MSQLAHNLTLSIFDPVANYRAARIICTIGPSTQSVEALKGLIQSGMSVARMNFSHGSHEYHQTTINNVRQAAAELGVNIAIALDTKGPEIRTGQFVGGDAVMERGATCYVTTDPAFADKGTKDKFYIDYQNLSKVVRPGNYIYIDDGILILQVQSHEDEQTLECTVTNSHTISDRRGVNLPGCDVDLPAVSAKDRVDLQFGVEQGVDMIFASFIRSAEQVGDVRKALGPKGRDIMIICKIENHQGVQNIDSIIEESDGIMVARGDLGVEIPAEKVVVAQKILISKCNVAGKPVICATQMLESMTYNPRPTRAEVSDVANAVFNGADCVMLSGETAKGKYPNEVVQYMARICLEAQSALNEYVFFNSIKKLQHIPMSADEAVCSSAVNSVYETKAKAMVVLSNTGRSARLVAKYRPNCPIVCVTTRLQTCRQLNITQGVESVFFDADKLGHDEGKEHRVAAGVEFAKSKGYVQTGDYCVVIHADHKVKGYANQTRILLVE

| SMILES | Potency |
| --- | --- |
| CS(=O)(=O)C1=NSC2=NC(=O)/C(=C\c3ccc(OC(=O)c4ccco4)c(Br)c3)C(=N)N21 | inconclusive: 11.2 µM [falling, partial curve] |
